Measurements taken from the supplement of paper PMC8728848.
This is one part of the list.

Key:
Assay in all cases: glycan array binding signal (z-score within array); higher = stronger binding
Settings in all cases: glycan notation: IUPAC condensed, linker removed
Gal3S6S(b1-4)GlcNAc6S = biological target: Gal3S6S(b1-4)GlcNAc6S
Method in brief: (§1)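 Negative Z-scores can be read as non-binding. The Z-score is calculated within each array and then averaged across arrays of one protein sequence at different concentrations or buffers and across linkers. Arrays, 3228 in all, were curated from the Consortium for Functional Glycomics database and kept only where the protein sequence was available.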

Gal4S(b1-4)GlcNAc = biological target: Gal4S(b1-4)GlcNAc
Method in brief: as §1

Gal4S6S(b1-4)GlcNAc = biological target: Gal4S6S(b1-4)GlcNAc
Method in brief: as §1

Gal6S(b1-4)Glc = biological target: Gal6S(b1-4)Glc
Method in brief: as §1

Gal6S(b1-4)Glc6S = biological target: Gal6S(b1-4)Glc6S
Method in brief: as §1

Gal6S(b1-4)GlcNAc = biological target: Gal6S(b1-4)GlcNAc
Method in brief: as §1

Gal6S(b1-4)GlcNAc6S = biological target: Gal6S(b1-4)GlcNAc6S
Method in brief: as §1

GalNAc(a1-3)Gal = biological target: GalNAc(a1-3)Gal
Method in brief: as §1

GalNAc(a1-3)GalNAc = biological target: GalNAc(a1-3)GalNAc
Method in brief: as §1

GalNAc(b1-3)Gal = biological target: GalNAc(b1-3)Gal
Method in brief: as §1

[1] = biological target: GalNAc(b1-3)Gal(a1-4)Gal(b1-4)GlcNAc
Method in brief: as §1

[2] = biological target: GalNAc(b1-3)Gal(a1-4)Gal(b1-4)GlcNAc(b1-3)Gal(b1-4)Glc
Method in brief: as §1

GalNAc(b1-3)GalNAc = biological target: GalNAc(b1-3)GalNAc
Method in brief: as §1

GalNAc(b1-4)GlcNAc = biological target: GalNAc(b1-4)GlcNAc
Method in brief: as §1

[3] = biological target: GalNAc(b1-4)GlcNAc(b1-2)Man(a1-3)[GalNAc(b1-4)GlcNAc(b1-2)Man(a1-6)]Man(b1-4)GlcNAc(b1-4)GlcNAc
Method in brief: as §1

Glc(a1-4)Glc = biological target: Glc(a1-4)Glc
Method in brief: as §1

Glc(a1-6)Glc(a1-6)Glc = biological target: Glc(a1-6)Glc(a1-6)Glc
Method in brief: as §1

Glc(b1-4)Glc = biological target: Glc(b1-4)Glc
Method in brief: as §1

Glc(b1-6)Glc = biological target: Glc(b1-6)Glc
Method in brief: as §1

GlcA(b1-3)Gal = biological target: GlcA(b1-3)Gal
Method in brief: as §1

GlcA(b1-3)GlcNAc = biological target: GlcA(b1-3)GlcNAc
Method in brief: as §1

GlcA(b1-6)Gal = biological target: GlcA(b1-6)Gal
Method in brief: as §1

[4] = biological target: GlcNAc(a1-3)Gal(b1-4)GlcNAc
Method in brief: as §1

[5] = biological target: GlcNAc(a1-4)Gal(b1-3)GlcNAc
Method in brief: as §1

[6] = biological target: GlcNAc(a1-4)Gal(b1-4)GalNAc
Method in brief: as §1

[7] = biological target: GlcNAc(a1-4)Gal(b1-4)GlcNAc
Method in brief: as §1

[8] = biological target: GlcNAc(a1-4)Gal(b1-4)GlcNAc(b1-3)Gal(b1-4)Glc
Method in brief: as §1

[9] = biological target: GlcNAc(a1-4)Gal(b1-4)GlcNAc(b1-3)Gal(b1-4)GlcNAc
Method in brief: as §1

[10] = biological target: GlcNAc(a1-4)Gal(b1-4)GlcNAc(b1-3)Gal(b1-4)GlcNAc(b1-3)Gal(b1-4)GlcNAc
Method in brief: as §1

[11] = biological target: GlcNAc(a1-4)Gal(b1-4)GlcNAc(b1-3)Gal(b1-4)[Fuc(a1-3)]GlcNAc(b1-3)Gal(b1-4)[Fuc(a1-3)]GlcNAc
Method in brief: as §1

[12] = biological target: GlcNAc(a1-6)Gal(b1-4)GlcNAc
Method in brief: as §1

[13] = biological target: GlcNAc(b1-2)Gal(b1-3)GalNAc
Method in brief: as §1

[14] = biological target: GlcNAc(b1-2)Man(a1-3)[GlcNAc(b1-2)Man(a1-6)]Man(b1-4)GlcNAc(b1-4)GlcNAc
Method in brief: as §1

[15] = biological target: GlcNAc(b1-2)Man(a1-3)[GlcNAc(b1-2)Man(a1-6)]Man(b1-4)GlcNAc(b1-4)[Fuc(a1-6)]GlcNAc
Method in brief: as §1

GlcNAc(b1-3)Gal = biological target: GlcNAc(b1-3)Gal
Method in brief: as §1

[16] = biological target: GlcNAc(b1-3)Gal(b1-3)GalNAc
Method in brief: as §1

GlcNAc(b1-3)Gal(b1-4)Glc = biological target: GlcNAc(b1-3)Gal(b1-4)Glc
Method in brief: as §1

B1: GALT1 615 (Arabidopsis thaliana), Q8L7F9 (protein)
chain: DPMRGSHHHHHHGMASMTGGQQMGRDLYDDDDKSRLQKPYITAAASVVVTPNTTLPMEWLRITLPDFMKEARNTQEAISGDDIAVVSGLFVEQNVSKEEREPLLTWNRLESLVDNAQSLVNGVDAIKEAGIVWESLVSAVEAKKLVDVNENQTRKGKEELCPQFLSKMNATEADGSSLKLQIPCGLTQGSSITVIGIPDGLVGSFRIDLTGQPLPGEPDPPIIVHYNVRLLGDKSTEDPVIVQNSWTASQDWGAEERCPKFDPDMNKKVDDLDECNKMVGGEINRTSSTSLQSNTSRGVPVAREASKHEKYFPFKQGFLSVATLRVGTEGMQMTVDGKHITSFAFRDTLEPWLVSEIRITGDFRLISILA
glycan array binding signal (z-score) (Gal3S6S(b1-4)GlcNAc6S): -0.057 | glycan array binding signal (z-score) (Gal4S(b1-4)GlcNAc): -0.085 | glycan array binding signal (z-score) (Gal4S6S(b1-4)GlcNAc): -0.336 | glycan array binding signal (z-score) (Gal6S(b1-4)Glc): 0.153 | glycan array binding signal (z-score) (Gal6S(b1-4)Glc6S): 1.58 | glycan array binding signal (z-score) (Gal6S(b1-4)GlcNAc): 1.22 | glycan array binding signal (z-score) (Gal6S(b1-4)GlcNAc6S): -0.309 | glycan array binding signal (z-score) (GalNAc(a1-3)Gal): -0.139 | glycan array binding signal (z-score) (GalNAc(a1-3)GalNAc): -0.4 | glycan array binding signal (z-score) (GalNAc(b1-3)Gal): -0.01 | glycan array binding signal (z-score) [1]: -0.227 | glycan array binding signal (z-score) [2]: -0.554 | glycan array binding signal (z-score) (GalNAc(b1-3)GalNAc): -0.069 | glycan array binding signal (z-score) (GalNAc(b1-4)GlcNAc): -0.215 | glycan array binding signal (z-score) [3]: 0.204 | glycan array binding signal (z-score) (Glc(a1-4)Glc): 3.74 | glycan array binding signal (z-score) (Glc(a1-6)Glc(a1-6)Glc): -0.428 | glycan array binding signal (z-score) (Glc(b1-4)Glc): -0.378 | glycan array binding signal (z-score) (Glc(b1-6)Glc): -0.404 | glycan array binding signal (z-score) (GlcA(b1-3)Gal): -0.222 | glycan array binding signal (z-score) (GlcA(b1-3)GlcNAc): -0.443 | glycan array binding signal (z-score) (GlcA(b1-6)Gal): -0.165 | glycan array binding signal (z-score) [4]: -0.314 | glycan array binding signal (z-score) [5]: 1.13 | glycan array binding signal (z-score) [6]: 8 | glycan array binding signal (z-score) [7]: -0.169 | glycan array binding signal (z-score) [8]: -0.397 | glycan array binding signal (z-score) [9]: -0.46 | glycan array binding signal (z-score) [10]: -0.529 | glycan array binding signal (z-score) [11]: 0.255 | glycan array binding signal (z-score) [12]: -0.495 | glycan array binding signal (z-score) [13]: 0.019 | glycan array binding signal (z-score) [14]: -0.109 | glycan array binding signal (z-score) [15]: 6.45 | glycan array binding signal (z-score) (GlcNAc(b1-3)Gal): -0.263 | glycan array binding signal (z-score) [16]: -0.088 | glycan array binding signal (z-score) (GlcNAc(b1-3)Gal(b1-4)Glc): -0.006
